{"source": "paper PMC12136788", "binders": {"B1": {"name": "chr9:21140631:21140982:-|three_prime_utr|ENSG00000177047|control|control|control (ssRNA)", "RNA": "GGGAGUUCUACAGUCCGACGAUCGUGACUCUGGUCAAUUCAAAAGACUCUUAUUUCGGCUUUAAUCACAGAAUUGACUGAAUUAGUUCUGCAAAUACUUUGUCGGUAUAUUAAGCCAGUAUAUGUUAAAAAGACUUAGGUUCACAACAGAGGAUUGAGCAUCA"}, "B2": {"name": "ENSG00000107863:be:win_951|CDS|ENSG00000107863|bound_else_gene|NA|bound_elsewhere_windowed (ssRNA)", "RNA": "GGGAGUUCUACAGUCCGACGAUCCACAUCACCACCAUUAUCAAUUCCCACCACUCAUCUAAUUCAUCAGCCUGCAGGCUCCAGAUCACUGGAACCUUCUGGAAUUUUACUUAAGUCUGGAAAUUACAGUGGACAUUCUGAUGGCAACAGAGGAUUGAGCAUCA"}, "B3": {"name": "chr15:77046177:77046188:-|3pUTR|ENSG00000140391|msi1_unk|FALSE|overlapping (ssRNA)", "RNA": "GGGAGUUCUACAGUCCGACGAUCUUAAUCAAAGUUGGCUUUAUAGGAGGAGUAUAAUGUAUGCACUACUGUUUUAAAAGAAUUAGUGUGAGUGUGUUUUUGUAUGAAUGAGCCCAUUCAUGGUAAGUCUUAAGCUUGUUGGAACAACAGAGGAUUGAGCAUCA"}, "B4": {"name": "chr11:1889147:1890584:-|CDS|ENSG00000283787|control|control|control (ssRNA)", "RNA": "GGGAGUUCUACAGUCCGACGAUCGCCACCCGGCUUCCAGGCCUCAGUGCCCAGAGAGGCUAGUGCCAGGGUUGUGGUGCCCAUAGCCCCGACCUGCCGCUCGCUGGAGUCCUCACCGCACAGCCUGGUCCCCAUGGGCCCUGGCAACAGAGGAUUGAGCAUCA"}, "B5": {"name": "chr2:19992051:19993110:-|three_prime_utr|ENSG00000132031|control|control|control (ssRNA)", "RNA": "GGGAGUUCUACAGUCCGACGAUCAGAAUCAGCAUGAUUCUUCCAAGGAAAUACAUAUGCAGAUACUUAUUAAGAGCAAACUUUAGUGUCUCUAAGUUAUGACUGUGAAAUGAUUGGUAGGAAAUAGAAUGAAAAGUUUAGUGUCAACAGAGGAUUGAGCAUCA"}, "B6": {"name": "chr3:142163631:142163732:-|3pUTR|ENSG00000175066|unk|total|mutant (ssRNA)", "RNA": "GGGAGUUCUACAGUCCGACGAUCCCCAAAGUGCUGGGAUUGCAGCCGUGAACCACUGCACCCAGCCAAUGGGUGUAAUUUCACCGGAAAUAAUUCUUUUUGUCAGAAUGUACUGAAUUGUAAUAUUAAUACCUGAAAAUUUGUCAACAGAGGAUUGAGCAUCA"}, "B7": {"name": "ENSG00000136631:stop:overlap|stop_codon|ENSG00000136631|stop_codon|NA|stop_codon (ssRNA)", "RNA": "GGGAGUUCUACAGUCCGACGAUCACAAAGGUGUUGGAGAGCAGCUUUGGGUUCUGUGCUGGUUGUUAGAACUCAUCUCCAGGUAGCCCACGGAUACGUGGUUGGCACAGACACAAGACUCCCAGAGUUGUCCUAACAAUAAGUCAACAGAGGAUUGAGCAUCA"}, "B8": {"name": "ENSG00000107863:be:win_4351|CDS|ENSG00000107863|bound_else_gene|NA|bound_elsewhere_windowed (ssRNA)", "RNA": "GGGAGUUCUACAGUCCGACGAUCCACAAUGAUACUAAAGAGGAGUCCAAAAAAGAAAGUGAGACACUGGGCAGAAAACAGAAGAUCAUCAUUGCCAAAGAAAACAGCACUAGGAAAGACCCCAGCACGACAAAAGAUGAAAAGCAACAGAGGAUUGAGCAUCA"}, "B9": {"name": "ENSG00000198589:be:win_1201|CDS|ENSG00000198589|bound_else_gene|NA|bound_elsewhere_windowed (ssRNA)", "RNA": "GGGAGUUCUACAGUCCGACGAUCGCUGAGCAUCACAAACUUUUAUUGUACGAUGGGAAACUCUCUAGUGCCAUUGCAUUCACGUACAAUCCACGGGCUACAGAUGCCCAGCUUUGUCUUGAAUCAUCUCCUAAGGACAACCCUCAACAGAGGAUUGAGCAUCA"}, "B10": {"name": "chr6:350928:351029:+|3pUTR|ENSG00000112679|unk|FALSE|unique (ssRNA)", "RNA": "GGGAGUUCUACAGUCCGACGAUCCCACAGAGUUUAGGCUGGUGCUGCCAAAAAGAAAAGCAACAUAGAGUUUAAGUAUCCAGUAGUGAUUUGUAAACUUGUUUUUCAUUUGAAGCUGAAUAUAUACGUAGUCAUGUUUAUGUUCAACAGAGGAUUGAGCAUCA"}, "B11": {"name": "chr14:92797766:92797867:+|CDS|ENSG00000066455|msi1|FALSE|unique (ssRNA)", "RNA": "GGGAGUUCUACAGUCCGACGAUCCAUUUUGUGCGAAGAAAAAAGUCAGAACCUGAUGAUGAGCUGCUGUUUGAUUUUCUUAAUAGUUCACAGAAGGAGCCUACCGGGAGGGUGGAAAUCAGAAAGGAAAAAGGCAAGACACCUCAACAGAGGAUUGAGCAUCA"}, "B12": {"name": "chr8:38210266:38210373:+|CDS|ENSG00000156735|unk|FALSE|unique (ssRNA)", "RNA": "GGGAGUUCUACAGUCCGACGAUCAAAAAUCAUACAUGUGCUGGAGAAGGUCCAGUAUCUUGAACAAGAAGUAGAAGAAUUUGUAGGAAAAAAGACAGACAAAGCAUACUGGCUUCUGGAAGAAAUGCUAACCAAGGAACUUUUCAACAGAGGAUUGAGCAUCA"}, "B13": {"name": "ENSG00000107863:be:win_601|CDS|ENSG00000107863|bound_else_gene|NA|bound_elsewhere_windowed (ssRNA)", "RNA": "GGGAGUUCUACAGUCCGACGAUCCCAAUCUGCUAUCCCUGGCUGCCAUCUGCCCCAUCAGCCAUGGCACAGCCAGUUGAAAUAUCUCCUCCUGACUCAUCAUUGAGCAAACAGCAAACCAGUACACCAGUACUGACACAACCUCAACAGAGGAUUGAGCAUCA"}, "B14": {"name": "chr12:104348774:104348848:+|3pUTR|ENSG00000198431|msi1_unk|FALSE|overlapping (ssRNA)", "RNA": "GGGAGUUCUACAGUCCGACGAUCCGUUGUCAAGUUUUCUAGGGUUGAAUUUUUUUCUUUUUUCUCCAUGGUGUUAAUGAUAUUAGAGAUGAAAAACGUUAGCAGUUGAUUUUUGUCCAAAAGCAAGUCAUGGCUAGAGUAUCCCAACAGAGGAUUGAGCAUCA"}}, "note": "This is one part of the list.", "data": [{"target": "T1, UNK ZnF1-6 (called full-length) (human, UniProt Q9C0B0 30-357)", "T1 sequence": "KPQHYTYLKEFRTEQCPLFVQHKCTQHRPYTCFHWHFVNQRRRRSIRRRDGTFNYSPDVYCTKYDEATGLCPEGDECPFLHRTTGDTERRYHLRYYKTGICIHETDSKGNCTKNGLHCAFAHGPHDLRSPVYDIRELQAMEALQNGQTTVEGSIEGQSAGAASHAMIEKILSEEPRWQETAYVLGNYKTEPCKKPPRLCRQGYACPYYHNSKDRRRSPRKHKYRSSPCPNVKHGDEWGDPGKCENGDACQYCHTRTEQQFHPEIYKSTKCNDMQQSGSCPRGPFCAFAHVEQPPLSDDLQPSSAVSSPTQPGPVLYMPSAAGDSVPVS", "assay": "nsRBNS (natural sequence RNA bind-n-seq); RBNS binding buffer (assumed for nsRBNS): 25 mM Tris pH 7.5, 150 mM KCl, 3 mM MgCl2, 0.01% Triton X-100, 500 ug/ml BSA, 20 U/ml SUPERase-In, 4 C; UNK is unkempt and MSI1 is Musashi-1; names of the RNAs are library labels; protein concentration not given here; high values mean tight binding", "units": {"binding signal": "enrichment R"}, "values": [{"binder": "B1", "binding signal": 0.716}, {"binder": "B2", "binding signal": 0.554}, {"binder": "B3", "binding signal": 0.512}, {"binder": "B4", "binding signal": 1.07}, {"binder": "B5", "binding signal": 1.58}, {"binder": "B6", "binding signal": 0.381}, {"binder": "B7", "binding signal": 0.922}, {"binder": "B8", "binding signal": 0.687}, {"binder": "B9", "binding signal": 0.458}, {"binder": "B10", "binding signal": 0.557}, {"binder": "B11", "binding signal": 0.931}, {"binder": "B12", "binding signal": 0.552}, {"binder": "B13", "binding signal": 0.488}, {"binder": "B14", "binding signal": 1.18}]}]}
